Results published in US20240190989A1 (BEIGENE SWITZERLAND, published 2024).

Tests used:
cyno CD137 ECD-mIgG2a = biological target: T1, cyno CD137 ECD-mIgG2a (monkey (Macaca mulatta gene; called …); experiment: SPR, antibody captured, cyno CD137 ECD-mIgG2a as analyte
T1 chain: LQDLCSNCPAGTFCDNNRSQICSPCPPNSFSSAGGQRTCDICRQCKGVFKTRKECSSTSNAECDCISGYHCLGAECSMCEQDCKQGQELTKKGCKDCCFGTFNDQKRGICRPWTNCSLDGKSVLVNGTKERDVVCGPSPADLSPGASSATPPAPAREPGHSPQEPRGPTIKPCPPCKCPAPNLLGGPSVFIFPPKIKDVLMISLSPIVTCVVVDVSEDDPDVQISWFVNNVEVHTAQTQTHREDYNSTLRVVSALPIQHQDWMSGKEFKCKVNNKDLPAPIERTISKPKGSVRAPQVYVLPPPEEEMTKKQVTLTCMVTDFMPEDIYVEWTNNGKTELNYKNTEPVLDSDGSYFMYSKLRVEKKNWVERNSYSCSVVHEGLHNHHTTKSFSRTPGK

human CD137 ECD-mIgG2a = biological target: T2, human CD137 ECD-mIgG2a (human); experiment: SPR, antibody captured, human CD137 ECD-mIgG2a as analyte
T2 construct: ECD 24-183 of huCD137 fused to mouse IgG2a Fc; also called huCD137-mIgG2a; huCD137

[1] = biological target: T3, full-length human CD137 on cells (Hut78/huCD137, HEK293 transfectants, JK-NFKB-CD137) (human, UniProt Q07011 24-255); experiment: flow cytometry on live Hut78/huCD137 cells
T3 construct: also called native CD137; TNFRSF9
T3 sequence (Q07011 24-255 limits assumed): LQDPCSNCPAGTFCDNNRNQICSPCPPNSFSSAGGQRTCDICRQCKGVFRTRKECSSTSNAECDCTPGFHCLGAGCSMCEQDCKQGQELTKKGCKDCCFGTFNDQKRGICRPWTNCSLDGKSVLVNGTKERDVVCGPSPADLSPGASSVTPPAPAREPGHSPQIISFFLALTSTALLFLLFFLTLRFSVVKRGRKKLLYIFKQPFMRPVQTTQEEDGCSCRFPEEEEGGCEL

Kd (cyno CD137 ECD-mIgG2a): 19.6 nM
koff (cyno CD137 ECD-mIgG2a): 0.00254 s⁻¹
kon (cyno CD137 ECD-mIgG2a): 130000 M⁻¹ s⁻¹
Kd (human CD137 ECD-mIgG2a): 23.8 nM
koff (human CD137 ECD-mIgG2a): 0.00503 s⁻¹
kon (human CD137 ECD-mIgG2a): 212000 M⁻¹ s⁻¹
EC50 [1]: 2.97 µg/mL
B1: BGA-5623 fused with wild type IgG1 Fc (Fc fusion)
chain: EVQLLESGGGLVQPGGSLRLSCAASGFTVSAEDVGWVRQAPGKGLEWVSAILDKGGSTYYAESVKGRFTISRDNAKNTLYLQMSSLRAEDTAVYYCARIVYHAGGGVTFDTRGQGTQVTVSS[not shown - human IgG1 Fc with changes]
